Read counts are not given, so values of variants with three or more changes are uncertain.

Self-cleavage data for 56 variants are collected here from the RNAGym collection of RNA variant scans (doi:10.7554/elife.90254).

B1: LINE1-mini (parent)
chain: GGCAGAGCUCAACACAGCGUGGCAAAGUGGCUGUGGCUAGACUGCC

The variants in this data set derive from B1. In words: self-cleavage, relative activity (ratio to wild type); higher = more cleavage; in vitro, sequencing; the parent is a self-cleaving ribozyme.
Regarding GGCAGAGCUAAACACAGCGUGGCAAAGUGGCUGUGGCUUGACUACC [C10A A39U G44A], the self-cleavage is 0.03.
Then GGCAGAGCUAAAUACACCGUGGAAAACUGGCUGUGGCGCGACUGCC [C10A C13U G17C C23A G27C U38G A39C], with 0.02; and GGCAGAGCUAAACACAGCGUGGCAUAGUGGCUCUGGCUAGACUGCC [C10A A25U G33C], with 0.02; and GGCAGAGCUAAACACAGCGUGGCUAAGUGGCUGUGGCUAUACUGCC [C10A A24U G40U], with 0.02.
On to GGCAGAGCUAAAAACAGCGUGGCAAAGUGACUGUGGCUAGACUGCC [C10A C13A G30A], for which the self-cleavage was 0.04.
The figure for GGCAGAGCUAAACACCGCGUGGCAAAGUGGGUGUGGCUAGACUGCC [C10A A16C C31G] is 0.02; for GGCAGAGCUAAACACAGCGUGGCAAUGUGGAGGCGGCUAGACUGCC [C10A A26U C31A U32G U34C] it is 0.03; for GGCAGAGCUAAACACAGCGUGGCAACGUGGCUGUGGCUCGACUGCC [C10A A26C A39C] it is 0.04.
The figure for GGCAGAGCUAAACACAGCGUGGCAAAGUGGCUGUGGCUGGGCUGCC [C10A A39G A41G] is 0.
Then GGCAGAGCUAAAGACAGCGUGGCAAAGUGGCUGUGACUACACUGCC [C10A C13G G36A G40C], with 0.01; and GGCAGAGCUAAACACAGCGUGGCACAGAGGCUGUGGCUAGACUGCC [C10A A25C U28A], with 0.05; and GGCAGAGCUAAAUACUGCGUGUCAAAGUGGCUGUGACUAGACUGCC [C10A C13U A16U G22U G36A], with 0.06.
With GGCAGAGCUAAACACAGCGUGGCCAAGUGUCAGUGGCUAGACUGCC [C10A A24C G30U U32A], the self-cleavage came out at 0.
Then GGCAGAGCUAAAAACAGCGUGCCAAAUUGGCUGUGGCUAGACCGCC [C10A C13A G22C G27U U43C], with 0.01; and GGCAGAGCUAAACACUGCCUGGCAAAGUCGCUGUGGCUAGACUGCC [C10A A16U G19C G29C], with 0.02; and GGCAGAGCUAAAAACAGCGUGGCAGAGUGGCUGAGGCUAGACUGCC [C10A C13A A25G U34A], with 0.01.
As for GGCAGAGCUAAACACAGCGUGGCAAUGUGGCUGUGUCUAGACUGCC [C10A A26U G36U], the self-cleavage worked out at 0.
The figure for GGCAGAGCUAAAGACAGCGUGGCAAAGUGGCUGUGGUUAUACUGCC [C10A C13G C37U G40U] is 0.02; for GGCAGAGCUAAACUCAGCGUUGCAAAGUGGCUGUGUCUAGACUGCC [C10A A14U G21U G36U] it is 0.01; for GGCAGAGCUAAAAACUGCAUGGCAAAGUGGCUGUGUCUAGACUGCC [C10A C13A A16U G19A G36U] it is 0.02.
Consider GGCAGAGCUAAACACAGCGUGGCCAAGUGGCUGUGGCUACACUGCC [C10A A24C G40C], for which the self-cleavage came out at 0.05.
Then GGCAGAGCUAAAUACAGCUUGGCAAAGUGGCUGUGGCUAGACUGCA [C10A C13U G19U C46A], with 0.03; and GGCAGAGCUAAACACAGCGUGGCUAAGUGGCUGUGGCUAGCCUUCC [C10A A24U A41C G44U], with 0.04; and GGCAGAGCUAAAAACAGCGUGGCAAAGUGUCUGUUGCUAGACUGCC [C10A C13A G30U G35U], with 0.06.
Then GGCAGAGCUAAACACAGCGUGGCAAAGUGGCUGUGGCUAGUCUGCA [C10A A41U C46A], with 0; and GGCAGAGCUAAACACGGUGUGGCAAAGGGGCUUUGGCUAGACUGCC [C10A A16G C18U U28G G33U], with 0; and GGCAGAGCUAAACACAGCGUGGCAUAUUGGCUGUGGCUAGACUGCC [C10A A25U G27U], with 0.09.
The figure for GGCAGAGCUAAACACAGCGUGGCAUAGUGGCUUUGGAUAGACUGCC [C10A A25U G33U C37A] is 0.01; for GGCAGAGCUAAACACUGCGUGGCAAAGUGGCUGUGGCUAUACUGCC [C10A A16U G40U] it is 0; for GGCAGAGCUAAAAAUAGCGUGGCAAAGUGGAUGUGGCUAGAAUGCU [C10A C13A C15U C31A C42A C46U] it is 0.01.
GGCAGAGCUAAACACUGCGUGGCAAAGUGGCUGUGGCUAGACCGCC [C10A A16U U43C]: the self-cleavage came out at 0.02.
As to GGCAGAGCUAAACACAGCGUGGCAGAGUGUCUGUGGCUAGACUGCC [C10A A25G G30U], the self-cleavage was determined as 0.36.
Then GGCAGAGCUAAACACAGCGUGGCGAAGAGGGUGUGGCCAGACUGCC [C10A A24G U28A C31G U38C], with 0.03; and GGCAGAGCUAAACACAGCGUGGCGAAGUUGCUGUGGCUAGACUGCC [C10A A24G G29U], with 0.
GGCAGAGCUAAAUACAGCGUGGUAAAGUGGCUGCGGCUACACUGCC [C10A C13U C23U U34C G40C]: the self-cleavage turned out to be 0.01.
The figure for GGCAGAGCUAAAAACAGCGUGGCAAAGUGGCUGUUCCUAGAGUGCA [C10A C13A G35U G36C C42G C46A] is 0.01; for GGCAGAGCUAAAGACAGCAUGGCAAAGUGGCUGUUGCUAGACUGCC [C10A C13G G19A G35U] it is 0.06.
Turning to GGCAGAGCUAAAUACAGCGUGGCAUUGUCGCUGUGCCUAGACUGCC [C10A C13U A25U A26U G29C G36C], the self-cleavage stood at 0.
The figure for GGCAGAGCUAAACACAGCGUGGCCAAGUGGCUGUGCCUAGACUGCC [C10A A24C G36C] is 0; for GGCAGAGCUAAACACGGCGUGGCAAUGUGGCUGUGGCUAGACUGCC [C10A A16G A26U] it is 0.04.
The figure for GGCAGAGCUAAACACUGCGUGGCAAAGUGGCUGUCGCUAGACUGCC [C10A A16U G35C] is 0.03; for GGCAGAGCUAAACUCAGCGUGGCAAAGUUGCUAUGGCUAGACUGCC [C10A A14U G29U G33A] it is 0.02; for GGCAGAGCUAAAAACAGCGUGGCUAAGUGGCUGUGGCUAGACUGCC [C10A C13A A24U] it is 0.04.
GGCAGAGCUAAAUAGAGCGUGUCAACGUGGCUGUGGCUAGACUGCC [C10A C13U C15G G22U A26C]: the self-cleavage stood at 0.02.
Consider GGCAGAGCUAAAAAGAGCGUGGCAAAGUGGCUGUGGCUAGACUACC [C10A C13A C15G G44A], for which the self-cleavage was determined as 0.
Then GGCAGAGCUAAACACAGCGUGGCAGAGUGGCUGUGGCUGGACUGCC [C10A A25G A39G], with 0; and GGCAGAGCUAAACACAGCGUGGCAUAAUGGCAGUGGCUAGACUGCC [C10A A25U G27A U32A], with 0.04.
GGCAGAGCUAAACUCAGCGUGGUAAAGUGGCUGUGGGUAGACUGCC [C10A A14U C23U C37G]: the self-cleavage was 0.02.
Then GGCAGAGCUAAAUACUGCGUGGCAAAGUGGCUGUGCCUAGACUGCU [C10A C13U A16U G36C C46U], with 0.05; and GGCAGAGCUAAAUACAGCGUGGCAAAGUGGCUGUGGCUCGACUGCC [C10A C13U A39C], with 0.06.
The figure for GGCAGAGCUAAAGACAGCGUGGCAAAGUGGCUGUGGCUCGACUGCC [C10A C13G A39C] is 0.
For GGCAGAGCUAAAUACAGCGUGGCAUAGUGGCUGAGGCUAGACUGCC [C10A C13U A25U U34A], the self-cleavage was found to be 0.01.
Take GGCAGAGCUAAAAUCAGCGUGGCAAAGUGGCUGUGGCUAGACUGCC [C10A C13A A14U]: the self-cleavage stood at 0.01.
Regarding GGCAGAGCUAAACACAGCGUGGCCAAGUGGCUGUGGCUAGAUUGCC [C10A A24C C42U], the self-cleavage was 0.04.
The figure for GGCAGAGCUAAAAACGGCGUGGCAAAGUGGCUGUGGCUAGACUGCA [C10A C13A A16G C46A] is 0.03; for GGCAGAGCUAAACUCAGCGUGGCAAAGUGGCUGUGGCUAGAGUGCC [C10A A14U C42G] it is 0.01.
